Results taken from the supplement of paper PMC12230231.
± gives the standard deviation of the averaged measurements. Restriction of a single-cycle SIVsab GFP reporter by TRIM5α v1-loop variants in CRFK cells. Human variants: read share among cells still uninfected after two challenges over input, higher = gained restriction. Rhesus variants: share among infected cells over input, higher = lost restriction. Reporter dose not given per row. No active / inactive call per row; the paper calls a change when both replicates lie above its controls (mean + 2 SD of stop or wild-type variants, or the top frameshift score). Residues outside the varied loop are taken from Swiss-Prot. The paper reads the human single-substitution scores as noise; they and the rhesus combinations repeat poorly (rank correlation 0.3 to 0.4), indel scores repeat only for the top variants, rhesus substitutions well (0.9).

System: SIVsab (simian immunodeficiency virus of sabaeus monkeys), single-cycle GFP reporter, in CRFK cells
Assay: enrichment among uninfected cells over input (fold); higher = stronger restriction
Conditions: library: human / rhesus combinations
Experimental: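 Pools of CRFK cells expressing variants of the TRIM5α v1 loop were challenged with the single-cycle reporter, sorted by GFP and sequenced; mean of two replicates.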

Sequence | enrichment
MASGILVNVKEEVTCPICLELLTQPLSLDCGHSFCQACLTANHKKSMLDKGESSCPVCRISYQPENIRPNRHVANIVEKLREVKLSPEGQKVDHCARHGEKLLLFCQEDGKVICWLCERSQEHRGHHTFLTEEVAREYQVKLQAALEMLRQKQQEAEELEADIREEKASWKTQIQYDKTNVLADFEQLRDILDWEESNELQNLEKEEEDILKSLTNSETEMVQQTQSLRELISDLEHRLQGSVMELLQGVDGVIKRTENVTLKKPETFPKNQRRVFRAPDLKGMLEVFRELTDVRRYWVDVTVAPNNISCAVISEDKRQVSSPKPQIIYGAPGTRFPSFVNFNYCTGILGSQSITSGKHYWEVDVSKKTAWILGVCAGFQPDAMCNIEKNENYQPKYGYWVIGLEEGVKCSAFQDSSFHTPSVPFIVPLSVIICPDRVGVFLDYEACTVSFFNITNHGFLIYKFSHCSFSQPVFPYLNPRKCGVPMTLCSPSS [human TRIM5α, 330-340 = GAPGTRFPSFV] | 0.001016 ± 5e-06
MASGILVNVKEEVTCPICLELLTQPLSLDCGHSFCQACLTANHKKSMLDKGESSCPVCRISYQPENIRPNRHVANIVEKLREVKLSPEGQKVDHCARHGEKLLLFCQEDGKVICWLCERSQEHRGHHTFLTEEVAREYQVKLQAALEMLRQKQQEAEELEADIREEKASWKTQIQYDKTNVLADFEQLRDILDWEESNELQNLEKEEEDILKSLTNSETEMVQQTQSLRELISDLEHRLQGSVMELLQGVDGVIKRTENVTLKKPETFPKNQRRVFRAPDLKGMLEVFRELTDVRRYWVDVTVAPNNISCAVISEDKRQVSSPKPQIIYQAPGTLYTFQSFVNFNYCTGILGSQSITSGKHYWEVDVSKKTAWILGVCAGFQPDAMCNIEKNENYQPKYGYWVIGLEEGVKCSAFQDSSFHTPSVPFIVPLSVIICPDRVGVFLDYEACTVSFFNITNHGFLIYKFSHCSFSQPVFPYLNPRKCGVPMTLCSPSS [human TRIM5α, 330-340 = QAPGTLYTFQSFV] | 0.291 ± 0.35
MASGILVNVKEEVTCPICLELLTQPLSLDCGHSFCQACLTANHKKSMLDKGESSCPVCRISYQPENIRPNRHVANIVEKLREVKLSPEGQKVDHCARHGEKLLLFCQEDGKVICWLCERSQEHRGHHTFLTEEVAREYQVKLQAALEMLRQKQQEAEELEADIREEKASWKTQIQYDKTNVLADFEQLRDILDWEESNELQNLEKEEEDILKSLTNSETEMVQQTQSLRELISDLEHRLQGSVMELLQGVDGVIKRTENVTLKKPETFPKNQRRVFRAPDLKGMLEVFRELTDVRRYWVDVTVAPNNISCAVISEDKRQVSSPKPQIIYQARGTLYTFPSLTNFNYCTGILGSQSITSGKHYWEVDVSKKTAWILGVCAGFQPDAMCNIEKNENYQPKYGYWVIGLEEGVKCSAFQDSSFHTPSVPFIVPLSVIICPDRVGVFLDYEACTVSFFNITNHGFLIYKFSHCSFSQPVFPYLNPRKCGVPMTLCSPSS [human TRIM5α, 330-340 = QARGTLYTFPSLT] | 0.0545 ± 0.075

Same assay, conditions: library: insertions and deletions

Sequence | enrichment
MASGILVNVKEEVTCPICLELLTQPLSLDCGHSFCQACLTANHKKSMLDKGESSCPVCRISYQPENIRPNRHVANIVEKLREVKLSPEGQKVDHCARHGEKLLLFCQEDGKVICWLCERSQEHRGHHTFLTEEVAREYQVKLQAALEMLRQKQQEAEELEADIREEKASWKTQIQYDKTNVLADFEQLRDILDWEESNELQNLEKEEEDILKSLTNSETEMVQQTQSLRELISDLEHRLQGSVMELLQGVDGVIKRTENVTLKKPETFPKNQRRVFRAPDLKGMLEVFRELTDVRRYWVDVTVAPNNISCAVISEDKRQVSSPKPQIIIYGARGTRYQTFVNFNYCTGILGSQSITSGKHYWEVDVSKKTAWILGVCAGFQPDAMCNIEKNENYQPKYGYWVIGLEEGVKCSAFQDSSFHTPSVPFIVPLSVIICPDRVGVFLDYEACTVSFFNITNHGFLIYKFSHCSFSQPVFPYLNPRKCGVPMTLCSPSS [human TRIM5α, 1-codon duplication at 328] | 0.519 ± 0.28
MASGILVNVKEEVTCPICLELLTQPLSLDCGHSFCQACLTANHKKSMLDKGESSCPVCRISYQPENIRPNRHVANIVEKLREVKLSPEGQKVDHCARHGEKLLLFCQEDGKVICWLCERSQEHRGHHTFLTEEVAREYQVKLQAALEMLRQKQQEAEELEADIREEKASWKTQIQYDKTNVLADFEQLRDILDWEESNELQNLEKEEEDILKSLTNSETEMVQQTQSLRELISDLEHRLQGSVMELLQGVDGVIKRTENVTLKKPETFPKNQRRVFRAPDLKGMLEVFRELTDVRRYWVDVTVAPNNISCAVISEDKRQVSSPKPQIIYGARGIYGARGTRYQTFVNFNYCTGILGSQSITSGKHYWEVDVSKKTAWILGVCAGFQPDAMCNIEKNENYQPKYGYWVIGLEEGVKCSAFQDSSFHTPSVPFIVPLSVIICPDRVGVFLDYEACTVSFFNITNHGFLIYKFSHCSFSQPVFPYLNPRKCGVPMTLCSPSS [human TRIM5α, 6-codon duplication at 328] | 0.373 ± 0.036
MASGILVNVKEEVTCPICLELLTQPLSLDCGHSFCQACLTANHKKSMLDKGESSCPVCRISYQPENIRPNRHVANIVEKLREVKLSPEGQKVDHCARHGEKLLLFCQEDGKVICWLCERSQEHRGHHTFLTEEVAREYQVKLQAALEMLRQKQQEAEELEADIREEKASWKTQIQYDKTNVLADFEQLRDILDWEESNELQNLEKEEEDILKSLTNSETEMVQQTQSLRELISDLEHRLQGSVMELLQGVDGVIKRTENVTLKKPETFPKNQRRVFRAPDLKGMLEVFRELTDVRRYWVDVTVAPNNISCAVISEDKRQVSSPKPQIIYGARGTRYQTFVNFCTGILGSQSITSGKHYWEVDVSKKTAWILGVCAGFQPDAMCNIEKNENYQPKYGYWVIGLEEGVKCSAFQDSSFHTPSVPFIVPLSVIICPDRVGVFLDYEACTVSFFNITNHGFLIYKFSHCSFSQPVFPYLNPRKCGVPMTLCSPSS [human TRIM5α, 2-codon deletion at 343] | 0.63 ± 0.071
MASGILVNVKEEVTCPICLELLTQPLSLDCGHSFCQACLTANHKKSMLDKGESSCPVCRISYQPENIRPNRHVANIVEKLREVKLSPEGQKVDHCARHGEKLLLFCQEDGKVICWLCERSQEHRGHHTFLTEEVAREYQVKLQAALEMLRQKQQEAEELEADIREEKASWKTQIQYDKTNVLADFEQLRDILDWEESNELQNLEKEEEDILKSLTNSETEMVQQTQSLRELISDLEHRLQGSVMELLQGVDGVIKRTENVTLKKPETFPKNQRRVFRAPDLKGMLEVFRELTDVRRYWVDVTVAPNNISCAVISEDKRQVSSPKPQIIYGARGTRYQTFVNFNYCTTFVNFNYCTGILGSQSITSGKHYWEVDVSKKTAWILGVCAGFQPDAMCNIEKNENYQPKYGYWVIGLEEGVKCSAFQDSSFHTPSVPFIVPLSVIICPDRVGVFLDYEACTVSFFNITNHGFLIYKFSHCSFSQPVFPYLNPRKCGVPMTLCSPSS [human TRIM5α, 9-codon duplication at 338] | 4.26 ± 5.8
MASGILVNVKEEVTCPICLELLTQPLSLDCGHSFCQACLTANHKKSMLDKGESSCPVCRISYQPENIRPNRHVANIVEKLREVKLSPEGQKVDHCARHGEKLLLFCQEDGKVICWLCERSQEHRGHHTFLTEEVAREYQVKLQAALEMLRQKQQEAEELEADIREEKASWKTQIQYDKTNVLADFEQLRDILDWEESNELQNLEKEEEDILKSLTNSETEMVQQTQSLRELISDLEHRLQGSVMELLQGVDGVIKRTENVTLKKPETFPKNQRRVFRAPDLKGMLEVFRELTDVRRYWVDVTVAPNNISCAVISEDKRQVSSPKPQIIYGARGTRYQQTFVNFNYCTGILGSQSITSGKHYWEVDVSKKTAWILGVCAGFQPDAMCNIEKNENYQPKYGYWVIGLEEGVKCSAFQDSSFHTPSVPFIVPLSVIICPDRVGVFLDYEACTVSFFNITNHGFLIYKFSHCSFSQPVFPYLNPRKCGVPMTLCSPSS [human TRIM5α, 1-codon duplication at 337] | 0.302 ± 0.088
